Laboratory results published in patent US20250179172A1 (HAINAN SIMCERE ZAIMING PHARMACEUTICAL, published 2025).

Tests used:
[1] = target: T1, human CD5 (Arg25-Pro372)-His protein (Acro, Cat. No. CD5-H52H5) (human, UniProt P06127 25-372); test: SPR (Biacore), antibody captured on Protein A chip, hCD5-His in solution, 1:1 model
T1 construct: range 25-372; also called human CD5-His; hCD5-His; not shown: His tag
T1 sequence (looked up): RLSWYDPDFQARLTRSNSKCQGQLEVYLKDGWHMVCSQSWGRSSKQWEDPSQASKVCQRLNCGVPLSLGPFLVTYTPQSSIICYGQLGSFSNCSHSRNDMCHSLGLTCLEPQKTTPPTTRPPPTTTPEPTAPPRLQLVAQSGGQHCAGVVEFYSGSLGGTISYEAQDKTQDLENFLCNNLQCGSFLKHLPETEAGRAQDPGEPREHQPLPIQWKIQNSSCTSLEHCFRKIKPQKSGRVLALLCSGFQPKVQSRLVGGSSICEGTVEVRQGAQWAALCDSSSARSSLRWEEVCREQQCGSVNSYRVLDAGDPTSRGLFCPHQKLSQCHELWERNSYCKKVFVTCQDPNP
Protocol: The anti-human CD5 VHH-hFc was captured using a Protein A chip (GE Healthcare; 29-127-558). The sample and running buffer were HBS-EP+ (10 mM HEPES, 150 mM NaCl, 3 mM EDTA, 0.05% surfactant P20) (GE Healthcare; BR-1006-69). The flow cell was set at 25° C. The sample block was set at 16° C. Both were pretreated with the running buffer. In each cycle, first, the test antibody was captured using the Protein A chip, and then a single concentration of CD5 antigen protein was injected. The association and dissociation processes of the antibody with the antigen protein were recorded, and finally, the chip was regenerated using Glycine pH 1.5 (GE Healthcare; BR-1003-54). The association was determined by injecting different concentrations of recombinant human CD5-His in the solution and maintaining for 240 s, wherein the flow rate was 30 μL/min, and the protein was diluted in a 1:1 dilution ratio from 200 nM (see detailed results for actual concentrations tested) to obtain 5 concentrations in total. The dissociation phase was monitored for up to 600 s and triggered by switching from the sample solution to the running buffer. The surface was regenerated by washing with 10 mM glycine solution (pH 1.5) at a flow rate of 30 μL/min for 30 s. The difference in bulk refractive index was corrected by subtracting the responses obtained from the goat anti-human Fc surface, and blank injections were also subtracted (=double referencing). To calculate the apparent KD and other kinetic parameters, the Langmuir 1:1 model was used. The association rate (Kon), dissociation rate (Koff), and binding affinity (KD) of the VHH-hFc with the hCD5-His protein are shown in Table 12, in which the antibody H65 is used as a control.

[2] = target: T2, murine CD5-His (Sino Biologicals, Cat. No. 50403-M08H) (murine, UniProt P13379 24-371); test: ELISA on murine CD5-His, antibody 0.10 nM
T2 construct: also called murine CD5 protein; not shown: His tag
T2 sequence (looked up): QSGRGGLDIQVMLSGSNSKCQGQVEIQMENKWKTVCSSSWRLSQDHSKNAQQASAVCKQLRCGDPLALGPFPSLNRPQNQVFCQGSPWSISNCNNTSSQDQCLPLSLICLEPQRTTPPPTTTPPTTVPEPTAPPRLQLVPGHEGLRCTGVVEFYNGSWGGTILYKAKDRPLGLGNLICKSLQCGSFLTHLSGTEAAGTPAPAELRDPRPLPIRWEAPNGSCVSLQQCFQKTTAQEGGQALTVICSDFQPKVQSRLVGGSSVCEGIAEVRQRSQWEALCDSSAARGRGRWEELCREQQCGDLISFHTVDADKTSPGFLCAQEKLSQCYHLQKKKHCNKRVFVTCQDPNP
Protocol: (§1) The binding activity of the H65 antibody prepared above with human CD5 protein was subjected to ELISA assay. A purchased commercial antigen (human CD5-His) was diluted with PBS to obtain a final concentration of 2 μg/mL, and then added to a 96-well ELISA plate with 100 µL/well. The plate was sealed with a plastic film and incubated at 4° C. over the night, washed twice with PBS in the next day, added with a blocking solution [PBS+2% (w/w) BSA] and blocked at room temperature for 2 h. The blocking solution was drained out, and 100 nM of the H65 antibody or negative control antibody hIgG1 after gradient dilution was added, namely, the obtained product was the antibody Anti-HEL-hIgG1 against hen egg lysozyme (purchased from Biointron, Cat. No. B117901) with 50 μl per well. After incubation for 2 h at 37° C., the plate was washed for 3 times with PBS. A secondary antibody labeled with HRP (horseradish peroxidase) (A0170, purchased from Sigma) was added. After incubation for 2 h at 37° C., the plate was washed for 5 times with PBS. A TMB substrate was added with 50 μL/well and incubated at room temperature for 30 min, then a stop solution (1.0 N HCl) was added with 50 μL/well.
(§2) To assay the species cross-activity of the VHH-hFc, ELISA plates were coated with commercial murine CD5-His (CD5 (Sino Biologicals, Cat. No. 50403-M08H)), and ELISA assays were performed according to the method described in Example 2.2. […] The negative control is hIgG1 and NB145 serves as the positive control (NB145 has been verified to be bound to murine CD5); data in the table are values of OD_{450 nm}.

[3] = target: T2, murine CD5-His (Sino Biologicals, Cat. …); test: ELISA on murine CD5-His, antibody 10.00 nM
Protocol: as §1, §2

[4] = target: T2, murine CD5-His (Sino Biologicals, Cat. …); test: ELISA on murine CD5-His, antibody '0.000' nM as printed
Protocol: as §1, §2

[5] = target: T2, murine CD5-His (Sino Biologicals, Cat. …); test: ELISA on murine CD5-His, antibody 0.001 nM
Protocol: as §1, §2

[6] = target: T2, murine CD5-His (Sino Biologicals, Cat. …); test: ELISA on coated murine CD5-His
Protocol: as §1, §2

[7] = target: T2, murine CD5-His (Sino Biologicals, Cat. …); test: ELISA on murine CD5-His, antibody 0.01 nM
Protocol: as §1, §2

[8] = target: T2, murine CD5-His (Sino Biologicals, Cat. …); test: ELISA on murine CD5-His, antibody 100.00 nM
Protocol: as §1, §2

B1: S005-NB145-74 VHH-hFc (Fc fusion)
chain: EVQLVESGGGLVQAGGSLRLSCAASESTFSITAMGWYRQAPGKQRELVAAITSPGGSTNYADSVKGRFTISRDNAKNTMLLQMNSLKPEDTAVYYCNADINHGSGYYTVSWGQGTQVTVSS[human IgG1 Fc with changes not printed]
notes: VHH fused to human IgG1 Fc; no linker stated
Kd [1]: 12.9 nM
koff [1]: 0.0146 s⁻¹
kon [1]: 1.13e+06 M⁻¹ s⁻¹
OD450 [2]: 0.12 OD450
OD450 [3]: 0.12 OD450
OD450 [4]: 0.13 OD450
OD450 [5]: 0.12 OD450
binding result [6]: no binding (tested: 100 nM)
OD450 [7]: 0.13 OD450
OD450 [8]: 0.12 OD450

B2: S005-NB144-4 VHH-hFc (Fc fusion)
chain: EVQVVESGGGLVQAGGSLRLSCAASGSIFSINAMGWYRQAPGKEREVVAAISNGGNTYYEDSVMGRFTISRDNAKGTLYLQMNGLKPEDTAVYYCNADTVVGGGLLTEVWGQGTLVTVSS[human IgG1 Fc with changes not printed]
notes: as for B1
Kd [1]: 3.67 nM
koff [1]: 0.000701 s⁻¹
kon [1]: 191000 M⁻¹ s⁻¹
OD450 [2]: 0.09 OD450
OD450 [3]: 0.09 OD450
OD450 [4]: 0.08 OD450
OD450 [5]: 0.09 OD450
binding result [6]: no binding (tested: 100 nM)
OD450 [7]: 0.08 OD450
OD450 [8]: 0.11 OD450

B3: H65 scFv-hFc (Fc fusion)
chain: NIQLVQSGPELKKPGETVKISCKASGYTFTNYGMNWVKQAPGKGLRWMGWINTHTGEPTYADDFKGRFAFSLETSASTAYLQINNLKNEDTATYFCTRRGYDWYFDVWGAGTTVTVSSGGGGSGGGGSGGGGSDIKMTQSPSSMYASLGERVTITCKASQDINSYLSWFHHKPGKSPKTLIYRANRLVDGVPSRFSGSGSGQDYSLTISSLDYEDMGIYYCQQYDESPWTFGGGTKLEMK[human IgG1 Fc with changes not printed]
notes: also called H65 antibody
Kd [1]: 1.56 nM
koff [1]: 0.00148 s⁻¹
kon [1]: 947000 M⁻¹ s⁻¹

B4: S005-NB144-73 VHH-hFc (Fc fusion)
chain: EVQVVESGGGLVQAGGSLRLSCAASGDTICISAMYWYRQAPGKAREMVAAITSGGSTYYEDSVMGRFTIFRENAKNTVYLQMNSLKPEDTAVYYCNADIAGHNCSGYLKEYWGQGTQVTVSA[human IgG1 Fc with changes not printed]
notes: VHH fused to human IgG1 Fc; no linker stated; also called S002-NB144-73
Kd [1]: 0.248 nM
koff [1]: 0.000351 s⁻¹
kon [1]: 1.41e+06 M⁻¹ s⁻¹
OD450 [2]: 0.1 OD450
OD450 [3]: 0.1 OD450
OD450 [4]: 0.1 OD450
OD450 [5]: 0.1 OD450
binding result [6]: no binding (tested: 100 nM)
OD450 [7]: 0.09 OD450
OD450 [8]: 0.11 OD450

B5: S005-NB144-43 VHH-hFc (Fc fusion)
chain: QVQLVESGGGLVQPGGSLRLSCAASGFTWDYYAIGWFRQAPGKEREGVSCIDSSGGSINYLDSVKGRFTVSRDNAKNTVYLQMDSLKPEDTAIYYCAASSYWDCAVPDTGSPKTGHLESYFGSWGQGTQVIVSS[human IgG1 Fc with changes not printed]
notes: VHH fused to human IgG1 Fc; no linker stated; also called S002-NB144-43
Kd [1]: 0.325 nM
koff [1]: 9.87e-05 s⁻¹
kon [1]: 304000 M⁻¹ s⁻¹
OD450 [2]: 0.1 OD450
OD450 [3]: 0.1 OD450
OD450 [4]: 0.1 OD450
OD450 [5]: 0.1 OD450
binding result [6]: no binding (tested: 100 nM)
OD450 [7]: 0.09 OD450
OD450 [8]: 0.11 OD450

B6: S005-NB145-22 VHH-hFc (Fc fusion)
chain: QVQLVESGGGLVQAGGSLRLSCAVSGRTLSTVVVGWFRQTPGREREFVAVSRSGGATGYADSVKDRFTISRDNAKNTVALQMNSLKPEDTAVYYCAGRGSGLYGSSWYNQIQEYDGWGQGTQVTVSS[human IgG1 Fc with changes not printed]
notes: as for B1
Kd [1]: 0.355 nM
koff [1]: 0.000363 s⁻¹
kon [1]: 1.02e+06 M⁻¹ s⁻¹
OD450 [2]: 0.09 OD450
OD450 [3]: 0.11 OD450
OD450 [4]: 0.09 OD450
OD450 [5]: 0.09 OD450
binding result [6]: no binding (tested: 100 nM)
OD450 [7]: 0.09 OD450
OD450 [8]: 0.11 OD450

B7: S005-NB145-3 VHH-hFc (Fc fusion)
chain: QVQLVESGGGLVQPGGSLRLSCAASGFSLDYYAIGWFRQAPGKEREGVSYISPSDGRTYYADSVKGRFTISRDNAKNTVYLQMNSLKPEDTAVYYCATDWGSTSFDYGLKLSPTQYGYWGQGTQVTVSS[human IgG1 Fc with changes not printed]
notes: as for B1
Kd [1]: 1.72 nM
koff [1]: 0.000922 s⁻¹
kon [1]: 536000 M⁻¹ s⁻¹
OD450 [2]: 0.09 OD450
OD450 [3]: 0.09 OD450
OD450 [4]: 0.09 OD450
OD450 [5]: 0.09 OD450
binding result [6]: no binding (tested: 100 nM)
OD450 [7]: 0.09 OD450
OD450 [8]: 0.11 OD450

B8: S005-NB145-92 VHH-hFc (Fc fusion)
chain: EVQLVESGGGLVQPGGSLRLSCAASGFSLDYYAIGWFRQAPGKEREGVSYISASDGSTYYADSVKGRFTISRDNAKNTVYLQMNSLKPEDTAVYYCATDWGSGSFNYGLRLSPTQYDYWGQGTQVTVSS[human IgG1 Fc with changes not printed]
notes: as for B1
Kd [1]: 5.64 nM
koff [1]: 0.0024 s⁻¹
kon [1]: 426000 M⁻¹ s⁻¹
OD450 [2]: 0.11 OD450
OD450 [3]: 0.11 OD450
OD450 [4]: 0.12 OD450
OD450 [5]: 0.12 OD450
binding result [6]: no binding (tested: 100 nM)
OD450 [7]: 0.11 OD450
OD450 [8]: 0.12 OD450

B9: S005-NB144-3 VHH-hFc (Fc fusion)
chain: QLQLVESGGGLVQPGGSLRLSCAASGFTFSSYAMSWYRQAPGKERELVAAITSAGGSTTYADSVKDRFTISRDNAKNTVSLQMNSLKPEDTAVYYCNAYCTGYVCHEGGYDYWGQGTQVTVSS[human IgG1 Fc with changes not printed]
notes: VHH variable region recombined into vector BI3.4-huIgG1 with signal peptide and human IgG1 Fc; no linker between VHH and Fc is stated
Kd [1]: 2.8 nM
koff [1]: 0.00218 s⁻¹
kon [1]: 781000 M⁻¹ s⁻¹
OD450 [2]: 0.1 OD450
OD450 [3]: 0.1 OD450
OD450 [4]: 0.11 OD450
OD450 [5]: 0.11 OD450
binding result [6]: no binding (tested: 100 nM)
OD450 [7]: 0.09 OD450
OD450 [8]: 0.11 OD450
